The values that follow come from the supplement of paper PMC6089552.

Among all 3,200 compounds or so, about 300 (9.4%) showed activity. Only a part is listed here, and it is no random draw.

For this test, the system named is A673/TR/shEF. In words: cell viability (LOESS-normalised, relative to median of negative controls) (log2 ratio); higher = more viable cells (less compound effect), active = hit call of the paper (over 3 MAD below the median). Particulars: treatment time: 72 h. The procedure, abridged: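 Doxycycline, present or absent from 24 h before compounds, was used to induce EWS-FLI1 shRNA knockdown in A673/TR/shEF Ewing sarcoma cells at 1,500 per well in 384-well plates. Cells then received library compounds at two or more concentrations, or DMSO controls, for three days. Viability was measured by CellTiter-Glo luminescence on an Envision reader, and per-plate LOESS correction, division by the negative-control median and log2 transformation followed.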

[1] abbreviates: 0.103 µM, library screen: screen3, EWS-FLI1 expression: high (no doxycycline).
[2] abbreviates: 0.103 µM, library screen: screen3, EWS-FLI1 expression: low (doxycycline-induced shRNA knockdown).
[3] abbreviates: 0.25 µM, library screen: screen1, EWS-FLI1 expression: high (no doxycycline).
Setting [4] is: 0.25 µM, library screen: screen1, EWS-FLI1 expression: low (doxycycline-induced shRNA knockdown).
The mark [5] stands for this setting: 0.25 µM, library screen: screen2, EWS-FLI1 expression: high (no doxycycline).
Setting [6] is: 0.25 µM, library screen: screen2, EWS-FLI1 expression: low (doxycycline-induced shRNA knockdown).
Setting [7] is: 0.308 µM, library screen: screen3, EWS-FLI1 expression: high (no doxycycline).
Where [8] appears, read: 0.308 µM, library screen: screen3, EWS-FLI1 expression: low (doxycycline-induced shRNA knockdown).
The mark [9] stands for this setting: 0.926 µM, library screen: screen3, EWS-FLI1 expression: high (no doxycycline).
Setting [10] is: 0.926 µM, library screen: screen3, EWS-FLI1 expression: low (doxycycline-induced shRNA knockdown).
Setting [11] is: 2.5 µM, library screen: screen1, EWS-FLI1 expression: high (no doxycycline).
[12] abbreviates: 2.5 µM, library screen: screen1, EWS-FLI1 expression: low (doxycycline-induced shRNA knockdown).
The mark [13] stands for this setting: 2.5 µM, library screen: screen2, EWS-FLI1 expression: high (no doxycycline).
Where [14] appears, read: 2.5 µM, library screen: screen2, EWS-FLI1 expression: low (doxycycline-induced shRNA knockdown).
[15] abbreviates: 2.8 µM, library screen: screen3, EWS-FLI1 expression: high (no doxycycline).
The mark [16] stands for this setting: 2.8 µM, library screen: screen3, EWS-FLI1 expression: low (doxycycline-induced shRNA knockdown).
Setting [17] is: 8.3 µM, library screen: screen3, EWS-FLI1 expression: high (no doxycycline).
The mark [18] stands for this setting: 8.3 µM, library screen: screen3, EWS-FLI1 expression: low (doxycycline-induced shRNA knockdown).
[19] abbreviates: 25 µM, library screen: screen3, EWS-FLI1 expression: high (no doxycycline).
[20] abbreviates: 25 µM, library screen: screen3, EWS-FLI1 expression: low (doxycycline-induced shRNA knockdown).

Consider `COCCOC(=O)C1=C(C)NC(C)=C(C(=O)OC(C)C)C1c1cccc([N+](=O)[O-])c1` (stereo not given), for which the “cell viability (log2)” value was inactive: 0.0776 under setting [1]; inactive: 0.103 under setting [2]; inactive: 0.153 under setting [3]; inactive: 0.0144 under setting [4]; inactive: 0.0652 under setting [5]; inactive: 0.00869 under setting [6]. Besides, the “cell viability (log2)” value was inactive: 0.0674 under setting [7]; inactive: 0.136 under setting [8]; inactive: 0.0964 under setting [9]; inactive: 0.0994 under setting [10]; inactive: 0.126 under setting [11]; inactive: 0.0808 under setting [12]. Besides, the “cell viability (log2)” value under setting [13] was inactive: 0.108; the “cell viability (log2)” value under setting [14] is inactive: 0.089; the “cell viability (log2)” value under setting [15] is inactive: 0.0078; the “cell viability (log2)” value under setting [16] is inactive: 0.123; the “cell viability (log2)” value under setting [17] is inactive: 0.0775; the “cell viability (log2)” value under setting [18] is inactive: 0.0884. The “cell viability (log2)” value was inactive: 0.0276 under setting [19] and inactive: 0.0391 under setting [20].
In the case of `CC(=O)N(O)CCCCCNC(=O)CCC(=O)N(O)CCCCCNC(=O)CCC(=O)N(O)CCCCCN`, the “cell viability (log2)” value is inactive: 0.101 under setting [3], inactive: 0.183 under setting [4], inactive: 0.148 under setting [11] and inactive: 0.155 under setting [12].
For the molecule `O=S(=O)(c1cccc2cnccc12)N1CCNCC1`, the “cell viability (log2)” value under setting [5] is inactive: 0.166, the “cell viability (log2)” value under setting [6] is inactive: 0.045, the “cell viability (log2)” value under setting [13] is inactive: 0.145 and the “cell viability (log2)” value under setting [14] was inactive: 0.0254.
On to `NC(Cc1cccc(-c2ccccc2CP(=O)(O)O)c1)C(=O)O` (stereo not given), for which the “cell viability (log2)” value reads like this: under setting [5], inactive: 0.125; under setting [6], inactive: 0.14; under setting [13], inactive: 0.201; under setting [14], inactive: 0.103.
On to `CC(=O)OC1CC[C@@]2(C)C(CC[C@H]3[C@@H]4CC=C(C(C)=O)[C@@]4(C)C(=O)C[C@@H]32)C1` (stereo not given in full), for which the “cell viability (log2)” value is inactive: 0.0289 under setting [3], inactive: 0.0314 under setting [4], inactive: 0.141 under setting [11] and inactive: 0.0915 under setting [12].
`O=C1Cc2cc(CCN3CCN(c4nsc5ccccc45)CC3)c(Cl)cc2N1`: the “cell viability (log2)” value by setting is: under setting [1], inactive: 0.0465; under setting [2], inactive: 0.129; under setting [7], inactive: 0.0555; under setting [8], inactive: 0.0344; under setting [9], inactive: 0.013; under setting [10], inactive: 0.0779. The “cell viability (log2)” value is inactive: 0.0748 under setting [15]; inactive: 0.0861 under setting [16]; inactive: 0.0519 under setting [17]; inactive: 0.0624 under setting [18]; inactive: 0.0773 under setting [19]; inactive: 0.0566 under setting [20].
In the case of `CCN[C@H]1C[C@H](C)S(=O)(=O)c2sc(S(N)(=O)=O)cc21`, the “cell viability (log2)” value reads like this: under setting [1], inactive: 0.00676; under setting [2], inactive: 0.0565; under setting [7], inactive: -0.00803; under setting [8], inactive: 0.0636; under setting [9], inactive: -0.00657; under setting [10], inactive: 0.0451. Moreover, the “cell viability (log2)” value is, setting by setting: under setting [15], inactive: -0.0163; under setting [16], inactive: 0.0246; under setting [17], inactive: 0.00351; under setting [18], inactive: 0.0537; under setting [19], inactive: -0.0107; under setting [20], inactive: 0.0326.
With `CCOC(=O)[C@]12CC1/C(=N\O)c1ccccc1O2` (stereo not given in full), the “cell viability (log2)” value by setting is: under setting [5], inactive: 0.145; under setting [6], inactive: 0.13; under setting [13], inactive: 0.0916; under setting [14], inactive: 0.0113.
In the case of `O=c1cc(-c2ccc(O)c(O)c2)oc2cc(O)cc(O)c12`, the “cell viability (log2)” value under setting [3] is inactive: 0.0908; the “cell viability (log2)” value under setting [4] is inactive: 0.0963; the “cell viability (log2)” value under setting [5] was inactive: 0.121; the “cell viability (log2)” value under setting [6] was inactive: 0.0811; the “cell viability (log2)” value under setting [11] is inactive: 0.134; the “cell viability (log2)” value under setting [12] is inactive: 0.0546. Besides, the “cell viability (log2)” value under setting [13] was inactive: 0.0837 and the “cell viability (log2)” value under setting [14] was inactive: 0.0515.
Turning to `COc1ccc2c(c1)CCC1=CC(=O)CC[C@@]12C`, the “cell viability (log2)” value by setting is: under setting [3], inactive: 0.0515; under setting [4], inactive: 0.00881; under setting [11], inactive: 0.19; under setting [12], inactive: 0.155.
`NCCCCNCCCN`: the “cell viability (log2)” value reads like this: under setting [3], inactive: 0.108; under setting [4], inactive: 0.0718; under setting [5], inactive: 0.0614; under setting [6], inactive: 0.0614; under setting [11], inactive: 0.103; under setting [12], inactive: -0.0247. Moreover, the “cell viability (log2)” value by setting is: under setting [13], inactive: 0.156; under setting [14], inactive: 0.0692.
For `COC(=O)Nc1ccc(-c2nc(N3CCOCC3)c3cnn(C4CCN(Cc5cccnc5)CC4)c3n2)cc1`, the “cell viability (log2)” value is, setting by setting: under setting [1], inactive: -0.0181; under setting [2], inactive: 0.0282; under setting [7], inactive: -0.00456; under setting [8], inactive: -0.0439; under setting [9], inactive: -0.169; under setting [10], inactive: -0.0706. The “cell viability (log2)” value is, setting by setting: under setting [15], active: -0.33; under setting [16], active: -0.297; under setting [17], active: -0.973; under setting [18], active: -0.691; under setting [19], active: -1.84; under setting [20], active: -1.76.
In the case of `CCC(NC(C)C)C(O)c1ccc(O)c(O)c1` (stereo not given), the “cell viability (log2)” value runs as follows: under setting [5], inactive: 0.115; under setting [6], inactive: 0.155; under setting [13], inactive: 0.102; under setting [14], inactive: 0.0162.
For the molecule `CCC(Cc1c(I)cc(I)c(N)c1I)C(=O)O` (stereo not given), the “cell viability (log2)” value was inactive: 0.0938 under setting [3], inactive: 0.0028 under setting [4], inactive: 0.0894 under setting [11] and inactive: 0.0528 under setting [12].
Regarding `CN(C)c1ccc(O)c2c1C[C@H]1C[C@H]3[C@H](N(C)C)C(=O)C(C(N)=O)=C(O)[C@@]3(O)C(=O)C1=C2O`, the “cell viability (log2)” value is active: -0.177 under setting [3]; inactive: -0.0588 under setting [4]; inactive: 0.0664 under setting [5]; inactive: 0.133 under setting [6]; active: -0.0936 under setting [11]; inactive: 0.0344 under setting [12]. Also, the “cell viability (log2)” value runs as follows: under setting [13], inactive: 0.00725; under setting [14], inactive: 0.0554.
As for `CN1CCc2cccc3c2[C@H]1Cc1ccc(O)c(O)c1-3`, the “cell viability (log2)” value is inactive: 0.0695 under setting [3]; inactive: 0.146 under setting [4]; inactive: 0.198 under setting [5]; inactive: 0.075 under setting [6]; inactive: 0.158 under setting [11]; inactive: 0.349 under setting [12]. Moreover, the “cell viability (log2)” value is inactive: 0.00124 under setting [13] and inactive: 0.0354 under setting [14].
